Reference: publication PMC10629813
These are yes or no findings as the source states them, for the method shown. Binding seen in cells or lysates may run through a third protein. Some results given as binding are weak or reduced against the parent protein; the word gives no strength. For some of these results: Tags and fused reporters may be left off the sequences shown.

Amino acid sequences for entries named in this document (tags omitted).
UniProt Q13263: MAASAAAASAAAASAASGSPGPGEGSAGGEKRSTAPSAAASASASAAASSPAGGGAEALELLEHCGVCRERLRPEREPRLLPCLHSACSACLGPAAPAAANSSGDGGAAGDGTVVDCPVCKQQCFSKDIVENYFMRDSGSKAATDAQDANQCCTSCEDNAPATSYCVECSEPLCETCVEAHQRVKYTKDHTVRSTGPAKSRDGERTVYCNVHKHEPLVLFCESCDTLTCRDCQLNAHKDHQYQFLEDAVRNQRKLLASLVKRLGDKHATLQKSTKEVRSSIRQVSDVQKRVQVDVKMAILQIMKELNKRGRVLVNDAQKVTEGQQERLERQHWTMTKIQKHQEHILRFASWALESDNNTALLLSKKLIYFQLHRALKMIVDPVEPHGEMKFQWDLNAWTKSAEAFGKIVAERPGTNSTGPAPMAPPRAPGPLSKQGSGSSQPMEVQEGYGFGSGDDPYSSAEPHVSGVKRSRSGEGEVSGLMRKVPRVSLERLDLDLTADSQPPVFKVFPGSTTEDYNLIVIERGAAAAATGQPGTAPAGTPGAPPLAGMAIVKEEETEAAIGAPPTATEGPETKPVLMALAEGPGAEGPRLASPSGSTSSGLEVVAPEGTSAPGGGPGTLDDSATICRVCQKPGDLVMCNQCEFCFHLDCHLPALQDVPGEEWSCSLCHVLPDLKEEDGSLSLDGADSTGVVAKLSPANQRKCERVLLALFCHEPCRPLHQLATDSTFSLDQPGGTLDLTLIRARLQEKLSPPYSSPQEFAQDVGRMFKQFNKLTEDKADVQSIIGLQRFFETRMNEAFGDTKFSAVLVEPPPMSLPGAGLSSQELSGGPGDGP

Assays:
[1] = biological target: T1, ZMYM2 (endogenous, U2OS cells) (human (endogenous in U2OS)) (UniProt Q9UBW7); assay: co-IP; IP with ZMYM2 or ZMYM3 antibody or control IgG from U2OS cells, immunoblot; NEM added to the extracts
T1 sequence: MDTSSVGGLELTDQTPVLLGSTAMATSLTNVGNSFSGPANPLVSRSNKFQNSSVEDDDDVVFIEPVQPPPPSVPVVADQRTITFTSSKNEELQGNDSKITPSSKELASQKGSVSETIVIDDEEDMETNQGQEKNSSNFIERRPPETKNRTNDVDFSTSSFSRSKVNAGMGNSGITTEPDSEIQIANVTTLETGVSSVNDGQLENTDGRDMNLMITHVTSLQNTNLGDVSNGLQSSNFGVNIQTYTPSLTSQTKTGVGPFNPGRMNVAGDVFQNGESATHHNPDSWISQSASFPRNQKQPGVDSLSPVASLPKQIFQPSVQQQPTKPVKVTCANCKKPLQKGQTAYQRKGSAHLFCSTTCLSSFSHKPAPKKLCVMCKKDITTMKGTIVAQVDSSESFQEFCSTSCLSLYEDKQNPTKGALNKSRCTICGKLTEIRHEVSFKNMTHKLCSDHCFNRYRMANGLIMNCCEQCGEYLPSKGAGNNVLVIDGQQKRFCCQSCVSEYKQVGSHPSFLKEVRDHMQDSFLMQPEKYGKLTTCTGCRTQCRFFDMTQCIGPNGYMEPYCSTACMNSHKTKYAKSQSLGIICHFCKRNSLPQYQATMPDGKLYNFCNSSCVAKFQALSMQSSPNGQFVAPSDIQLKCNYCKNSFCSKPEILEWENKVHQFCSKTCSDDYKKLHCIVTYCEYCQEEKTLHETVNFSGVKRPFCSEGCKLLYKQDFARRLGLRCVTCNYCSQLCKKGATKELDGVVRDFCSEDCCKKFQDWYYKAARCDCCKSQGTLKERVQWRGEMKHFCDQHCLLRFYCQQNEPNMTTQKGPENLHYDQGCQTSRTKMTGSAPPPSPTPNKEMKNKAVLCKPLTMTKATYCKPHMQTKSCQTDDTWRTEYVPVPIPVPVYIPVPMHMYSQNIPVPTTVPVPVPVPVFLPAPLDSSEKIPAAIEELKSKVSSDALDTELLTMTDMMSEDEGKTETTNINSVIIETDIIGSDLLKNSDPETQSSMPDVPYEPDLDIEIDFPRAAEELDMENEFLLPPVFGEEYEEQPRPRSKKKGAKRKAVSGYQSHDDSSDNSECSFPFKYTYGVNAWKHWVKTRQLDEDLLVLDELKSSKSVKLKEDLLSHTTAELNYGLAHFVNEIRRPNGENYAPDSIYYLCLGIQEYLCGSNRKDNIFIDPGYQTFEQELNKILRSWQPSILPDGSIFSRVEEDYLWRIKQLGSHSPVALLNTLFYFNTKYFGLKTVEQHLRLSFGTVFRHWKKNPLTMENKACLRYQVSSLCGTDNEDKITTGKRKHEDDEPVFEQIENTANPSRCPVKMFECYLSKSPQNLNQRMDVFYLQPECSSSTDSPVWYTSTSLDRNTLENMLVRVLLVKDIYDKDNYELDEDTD

[2] = biological target: T2, ZMYM3 (endogenous, U2OS cells) (human (endogenous in U2OS)) (UniProt Q14202); assay: as above
T2 sequence: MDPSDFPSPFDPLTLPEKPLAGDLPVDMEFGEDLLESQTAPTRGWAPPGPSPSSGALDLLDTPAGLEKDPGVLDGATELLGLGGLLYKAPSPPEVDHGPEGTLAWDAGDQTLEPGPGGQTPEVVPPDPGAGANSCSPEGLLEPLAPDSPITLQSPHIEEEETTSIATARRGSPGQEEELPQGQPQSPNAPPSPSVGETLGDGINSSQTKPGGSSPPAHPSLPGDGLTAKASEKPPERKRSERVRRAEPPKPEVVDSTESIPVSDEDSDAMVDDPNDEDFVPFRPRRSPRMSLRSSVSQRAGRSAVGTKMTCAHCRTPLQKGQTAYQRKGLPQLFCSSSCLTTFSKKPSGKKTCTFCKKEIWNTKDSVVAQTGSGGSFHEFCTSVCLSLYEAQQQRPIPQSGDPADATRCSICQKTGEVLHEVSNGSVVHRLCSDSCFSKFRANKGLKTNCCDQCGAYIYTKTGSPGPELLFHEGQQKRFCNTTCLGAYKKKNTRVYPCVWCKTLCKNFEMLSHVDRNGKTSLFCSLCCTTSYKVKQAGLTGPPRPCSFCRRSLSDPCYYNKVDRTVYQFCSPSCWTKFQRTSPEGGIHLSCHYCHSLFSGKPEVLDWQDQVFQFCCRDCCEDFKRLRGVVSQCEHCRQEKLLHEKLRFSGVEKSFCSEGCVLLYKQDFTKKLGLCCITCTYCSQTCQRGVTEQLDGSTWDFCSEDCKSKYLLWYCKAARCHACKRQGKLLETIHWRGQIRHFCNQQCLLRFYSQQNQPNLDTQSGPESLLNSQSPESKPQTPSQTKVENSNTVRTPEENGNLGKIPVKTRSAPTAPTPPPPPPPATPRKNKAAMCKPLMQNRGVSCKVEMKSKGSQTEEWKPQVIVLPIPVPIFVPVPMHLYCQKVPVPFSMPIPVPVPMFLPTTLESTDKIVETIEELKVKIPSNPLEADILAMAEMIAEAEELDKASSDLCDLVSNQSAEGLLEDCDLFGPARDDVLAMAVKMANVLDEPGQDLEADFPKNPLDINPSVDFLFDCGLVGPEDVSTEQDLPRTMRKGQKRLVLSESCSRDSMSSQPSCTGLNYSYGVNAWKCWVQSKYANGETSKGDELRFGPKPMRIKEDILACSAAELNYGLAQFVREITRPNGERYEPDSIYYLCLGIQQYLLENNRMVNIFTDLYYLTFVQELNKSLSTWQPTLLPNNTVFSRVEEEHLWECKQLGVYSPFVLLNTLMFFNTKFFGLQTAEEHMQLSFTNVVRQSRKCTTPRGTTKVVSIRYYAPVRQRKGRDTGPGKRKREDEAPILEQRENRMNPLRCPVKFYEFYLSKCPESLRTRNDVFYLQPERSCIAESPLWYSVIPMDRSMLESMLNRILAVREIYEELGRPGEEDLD

[3] = biological target: T3, Myc-tagged ZMYM2 (UniProt Q9UBW7); assay: proximity ligation; In situ PLA (Duolink-II) in fixed, permeabilised U2OS cells transfected with Myc-ZMYM2; anti-c-myc (9e10) and anti-KAP1 antibodies; untransfected cells as control
T3 sequence: T1 sequence

[4] = biological target: T1, ZMYM2 (endogenous, U2OS cells) (human (endogenous in U2OS)); assay: condition: only without NEM (standard conditions, SUMO conjugates not preserved); co-IP; IP with ZMYM2 antibody or control IgG from U2OS cells, immunoblot; standard conditions, no NEM added to the extracts
[5] = biological target: T1, ZMYM2 (endogenous, U2OS cells) (human (endogenous in U2OS)); assay: co-IP; IP with ZMYM2 or ZMYM3 antibody or control IgG from U2OS cells, immunoblot; NEM not mentioned
[6] = biological target: T2, ZMYM3 (endogenous, U2OS cells) (human (endogenous in U2OS)); assay: as above
[7] = biological target: TRIM28 (endogenous, HEK293T cells) (human (endogenous in HEK293T)) (UniProt Q13263); assay: co-IP; HEK293T cells transfected 24 hr with EGFP-tagged ZMYM2 plasmids; lysates with protease inhibitors and 20 mM NEM; IP with TRIM28 antibody, immunoblot with GFP and TRIM28 antibodies

Q: Which binding [1] does the source give for “TRIM28 (endogenous, U2OS cells) (from UniProt Q13263 1-835)” here?
A: The binding was “binds”.

Q: And the binding [2]?
A: The binding was “binds”.

Q: And the binding [3]?
A: Its binding is “binds”.

Q: What about the binding [4] of the same molecule?
A: The binding was “no binding”.

B1: ADNP (endogenous, U2OS cells) (protein, UniProt Q9H2P0 1-1102)
chain: MFQLPVNNLGSLRKARKTVKKILSDIGLEYCKEHIEDFKQFEPNDFYLKNTTWEDVGLWDPSLTKNQDYRTKPFCCSACPFSSKFFSAYKSHFRNVHSEDFENRILLNCPYCTFNADKKTLETHIKIFHAPNASAPSSSLSTFKDKNKNDGLKPKQADSVEQAVYYCKKCTYRDPLYEIVRKHIYREHFQHVAAPYIAKAGEKSLNGAVPLGSNAREESSIHCKRCLFMPKSYEALVQHVIEDHERIGYQVTAMIGHTNVVVPRSKPLMLIAPKPQDKKSMGLPPRIGSLASGNVRSLPSQQMVNRLSIPKPNLNSTGVNMMSSVHLQQNNYGVKSVGQGYSVGQSMRLGLGGNAPVSIPQQSQSVKQLLPSGNGRSYGLGSEQRSQAPARYSLQSANASSLSSGQLKSPSLSQSQASRVLGQSSSKPAAAATGPPPGNTSSTQKWKICTICNELFPENVYSVHFEKEHKAEKVPAVANYIMKIHNFTSKCLYCNRYLPTDTLLNHMLIHGLSCPYCRSTFNDVEKMAAHMRMVHIDEEMGPKTDSTLSFDLTLQQGSHTNIHLLVTTYNLRDAPAESVAYHAQNNPPVPPKPQPKVQEKADIPVKSSPQAAVPYKKDVGKTLCPLCFSILKGPISDALAHHLRERHQVIQTVHPVEKKLTYKCIHCLGVYTSNMTASTITLHLVHCRGVGKTQNGQDKTNAPSRLNQSPSLAPVKRTYEQMEFPLLKKRKLDDDSDSPSFFEEKPEEPVVLALDPKGHEDDSYEARKSFLTKYFNKQPYPTRREIEKLAASLWLWKSDIASHFSNKRKKCVRDCEKYKPGVLLGFNMKELNKVKHEMDFDAEWLFENHDEKDSRVNASKTADKKLNLGKEDDSSSDSFENLEEESNESGSPFDPVFEVEPKISNDNPEEHVLKVIPEDASESEEKLDQKEDGSKYETIHLTEEPTKLMHNASDSEVDQDDVVEWKDGASPSESGPGSQQVSDFEDNTCEMKPGTWSDESSQSEDARSSKPAAKKKATMQGDREQLKWKNSSYGKVEGFWSKDQSQWKNASENDERLSNPQIEWQNSTIDSEDGEQFDNMTDGVAEPMHGSLAGVKLSSQQA
Q: With B1 as the molecule, how does the binding [5] read?
A: Its binding is “binds”.

Q: What about the binding [6] of the same molecule?
A: The binding was “binds”.

B2: EGFP-ZMYM2(WT) (protein, UniProt Q9UBW7 1-1377)
chain: T1 sequence
Q: For B2, which binding [7] is on record?
A: The binding was “binds”.
